Test results from the supplement of paper PMC8728848.
Some of the results follow.

Assays:
Assay in all cases: glycan array binding signal (z-score within array); higher = stronger binding
Conditions in all cases: glycan notation: IUPAC condensed, linker removed
[1] = target: GalNAc(b1-3)Gal(a1-4)Gal(b1-4)GlcNAc
Summary of the method: (§1)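 The Consortium for Functional Glycomics database supplied 3228 glycan arrays, of which those lacking an available protein sequence were dropped. The binding signal, a within-array Z-score, was averaged across arrays of the same protein sequence and across linkers. Negative scores can be read as non-binding.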

[2] = target: GalNAc(b1-3)Gal(a1-4)Gal(b1-4)GlcNAc(b1-3)Gal(b1-4)Glc
Summary of the method: as §1

[3] = target: GalNAc(b1-3)Gal(a1-6)Gal(b1-4)Glc
Summary of the method: as §1

GalNAc(b1-3)GalNAc = target: GalNAc(b1-3)GalNAc
Summary of the method: as §1

GalNAc(b1-4)Gal(b1-4)Glc = target: GalNAc(b1-4)Gal(b1-4)Glc
Summary of the method: as §1

GalNAc(b1-4)GlcNAc = target: GalNAc(b1-4)GlcNAc
Summary of the method: as §1

[4] = target: GalNAc(b1-4)GlcNAc(b1-2)Man(a1-3)[GalNAc(b1-4)GlcNAc(b1-2)Man(a1-6)]Man(b1-4)GlcNAc(b1-4)GlcNAc
Summary of the method: as §1

GalNAc(b1-6)GalNAc = target: GalNAc(b1-6)GalNAc
Summary of the method: as §1

Glc(a1-4)Glc = target: Glc(a1-4)Glc
Summary of the method: as §1

[5] = target: Glc(a1-4)Glc(a1-4)Glc(a1-4)Glc
Summary of the method: as §1

Glc(a1-6)Glc(a1-6)Glc = target: Glc(a1-6)Glc(a1-6)Glc
Summary of the method: as §1

[6] = target: Glc(a1-6)Glc(a1-6)Glc(a1-6)Glc
Summary of the method: as §1

Glc(b1-4)Glc = target: Glc(b1-4)Glc
Summary of the method: as §1

Glc(b1-6)Glc = target: Glc(b1-6)Glc
Summary of the method: as §1

GlcA(b1-3)Gal = target: GlcA(b1-3)Gal
Summary of the method: as §1

GlcA(b1-3)GlcNAc = target: GlcA(b1-3)GlcNAc
Summary of the method: as §1

GlcA(b1-6)Gal = target: GlcA(b1-6)Gal
Summary of the method: as §1

[7] = target: GlcNAc(a1-3)Gal(b1-4)GlcNAc
Summary of the method: as §1

[8] = target: GlcNAc(a1-4)Gal(b1-3)GlcNAc
Summary of the method: as §1

[9] = target: GlcNAc(a1-4)Gal(b1-4)GalNAc
Summary of the method: as §1

[10] = target: GlcNAc(a1-4)Gal(b1-4)GlcNAc
Summary of the method: as §1

[11] = target: GlcNAc(a1-4)Gal(b1-4)GlcNAc(b1-3)Gal(b1-4)Glc
Summary of the method: as §1

[12] = target: GlcNAc(a1-4)Gal(b1-4)GlcNAc(b1-3)Gal(b1-4)GlcNAc
Summary of the method: as §1

[13] = target: GlcNAc(a1-4)Gal(b1-4)GlcNAc(b1-3)Gal(b1-4)GlcNAc(b1-3)Gal(b1-4)GlcNAc
Summary of the method: as §1

[14] = target: GlcNAc(a1-4)Gal(b1-4)GlcNAc(b1-3)Gal(b1-4)[Fuc(a1-3)]GlcNAc(b1-3)Gal(b1-4)[Fuc(a1-3)]GlcNAc
Summary of the method: as §1

[15] = target: GlcNAc(a1-6)Gal(b1-4)GlcNAc
Summary of the method: as §1

[16] = target: GlcNAc(b1-2)Gal(b1-3)GalNAc
Summary of the method: as §1

[17] = target: GlcNAc(b1-2)Man(a1-3)[GlcNAc(b1-2)Man(a1-6)]Man(b1-4)GlcNAc(b1-4)GlcNAc
Summary of the method: as §1

[18] = target: GlcNAc(b1-2)Man(a1-3)[GlcNAc(b1-2)Man(a1-6)]Man(b1-4)GlcNAc(b1-4)[Fuc(a1-6)]GlcNAc
Summary of the method: as §1

[19] = target: GlcNAc(b1-2)Man(a1-3)[GlcNAc(b1-4)][GlcNAc(b1-2)Man(a1-6)]Man(b1-4)GlcNAc(b1-4)GlcNAc
Summary of the method: as §1

[20] = target: GlcNAc(b1-2)[GlcNAc(b1-4)]Man(a1-3)[GlcNAc(b1-2)Man(a1-6)]Man(b1-4)GlcNAc(b1-4)GlcNAc
Summary of the method: as §1

[21] = target: GlcNAc(b1-2)[GlcNAc(b1-4)]Man(a1-3)[GlcNAc(b1-4)][GlcNAc(b1-2)Man(a1-6)]Man(b1-4)GlcNAc(b1-4)GlcNAc
Summary of the method: as §1

[22] = target: GlcNAc(b1-2)[GlcNAc(b1-4)]Man(a1-3)[GlcNAc(b1-4)][GlcNAc(b1-2)[GlcNAc(b1-6)]Man(a1-6)]Man(b1-4)GlcNAc(b1-4)GlcNAc
Summary of the method: as §1

[23] = target: GlcNAc(b1-2)[GlcNAc(b1-6)]Man(a1-6)[GlcNAc(b1-2)Man(a1-3)]Man(b1-4)GlcNAc(b1-4)GlcNAc
Summary of the method: as §1

[24] = target: GlcNAc(b1-2)[GlcNAc(b1-6)]Man(a1-6)[GlcNAc(b1-2)Man(a1-3)][GlcNAc(b1-4)]Man(b1-4)GlcNAc(b1-4)GlcNAc
Summary of the method: as §1

GlcNAc(b1-3)Gal = target: GlcNAc(b1-3)Gal
Summary of the method: as §1

[25] = target: GlcNAc(b1-3)Gal(b1-3)GalNAc
Summary of the method: as §1

GlcNAc(b1-3)Gal(b1-4)Glc = target: GlcNAc(b1-3)Gal(b1-4)Glc
Summary of the method: as §1

[26] = target: GlcNAc(b1-3)Gal(b1-4)GlcNAc
Summary of the method: as §1

[27] = target: GlcNAc(b1-3)Gal(b1-4)GlcNAc(b1-3)Gal(b1-4)GlcNAc
Summary of the method: as §1

GlcNAc(b1-3)GalNAc = target: GlcNAc(b1-3)GalNAc
Summary of the method: as §1

GlcNAc(b1-3)Man = target: GlcNAc(b1-3)Man
Summary of the method: as §1

[28] = target: GlcNAc(b1-3)[GlcNAc(b1-4)][GlcNAc(b1-6)]GlcNAc
Summary of the method: as §1

B1: BC2L-A (Burkholderia cenocepacia), Q1BKJ8_BURCA (protein)
chain: ADSQTSSNRAGEFSIPPNTDFRAIFFANAAEQQHIKLFIGDSQEPAAYHKLTTRDGPREATLNSGNGKIRFEVSVNGKPSATDARLAPINGKKSDGSPFTVNFGIVVSEDGHDSDYNDGIVVLQWPIG
Question: B1 was tested. Which “glycan array binding signal (z-score)” value [1] did it give?
Answer: -0.275

Question: What about the “glycan array binding signal (z-score)” value [2] of the same binder?
Answer: -0.3

Question: What about the “glycan array binding signal (z-score)” value [3] of the same binder?
Answer: -0.219

Question: And the “glycan array binding signal (z-score)” value (GalNAc(b1-3)GalNAc)?
Answer: -0.282

Question: And the “glycan array binding signal (z-score)” value (GalNAc(b1-4)Gal(b1-4)Glc)?
Answer: -0.221

Question: What about the “glycan array binding signal (z-score)” value (GalNAc(b1-4)GlcNAc) of the same binder?
Answer: -0.291

Question: What about the “glycan array binding signal (z-score)” value [4] of the same binder?
Answer: -0.291

Question: And the “glycan array binding signal (z-score)” value (GalNAc(b1-6)GalNAc)?
Answer: -0.219

Question: What about the “glycan array binding signal (z-score)” value (Glc(a1-4)Glc) of the same binder?
Answer: 0.033

Question: What about the “glycan array binding signal (z-score)” value [5] of the same binder?
Answer: -0.221

Question: What about the “glycan array binding signal (z-score)” value (Glc(a1-6)Glc(a1-6)Glc) of the same binder?
Answer: 0.138

Question: What about the “glycan array binding signal (z-score)” value [6] of the same binder?
Answer: -0.221

Question: What about the “glycan array binding signal (z-score)” value (Glc(b1-4)Glc) of the same binder?
Answer: -0.267

Question: And the “glycan array binding signal (z-score)” value (Glc(b1-6)Glc)?
Answer: -0.2

Question: And the “glycan array binding signal (z-score)” value (GlcA(b1-3)Gal)?
Answer: -0.15

Question: And the “glycan array binding signal (z-score)” value (GlcA(b1-3)GlcNAc)?
Answer: -0.297

Question: What about the “glycan array binding signal (z-score)” value (GlcA(b1-6)Gal) of the same binder?
Answer: -0.287

Question: And the “glycan array binding signal (z-score)” value [7]?
Answer: -0.197

Question: What about the “glycan array binding signal (z-score)” value [8] of the same binder?
Answer: -0.292

Question: What about the “glycan array binding signal (z-score)” value [9] of the same binder?
Answer: -0.296

Question: What about the “glycan array binding signal (z-score)” value [10] of the same binder?
Answer: -0.289

Question: What about the “glycan array binding signal (z-score)” value [11] of the same binder?
Answer: -0.295

Question: What about the “glycan array binding signal (z-score)” value [12] of the same binder?
Answer: -0.288

Question: What about the “glycan array binding signal (z-score)” value [13] of the same binder?
Answer: -0.283

Question: And the “glycan array binding signal (z-score)” value [14]?
Answer: -0.127

Question: What about the “glycan array binding signal (z-score)” value [15] of the same binder?
Answer: 0.141

Question: What about the “glycan array binding signal (z-score)” value [16] of the same binder?
Answer: 0.206

Question: And the “glycan array binding signal (z-score)” value [17]?
Answer: -0.229

Question: And the “glycan array binding signal (z-score)” value [18]?
Answer: -0.099

Question: What about the “glycan array binding signal (z-score)” value [19] of the same binder?
Answer: -0.19

Question: And the “glycan array binding signal (z-score)” value [20]?
Answer: -0.091

Question: And the “glycan array binding signal (z-score)” value [21]?
Answer: -0.219

Question: What about the “glycan array binding signal (z-score)” value [22] of the same binder?
Answer: -0.221

Question: And the “glycan array binding signal (z-score)” value [23]?
Answer: -0.17

Question: And the “glycan array binding signal (z-score)” value [24]?
Answer: -0.167

Question: And the “glycan array binding signal (z-score)” value (GlcNAc(b1-3)Gal)?
Answer: 0.176

Question: What about the “glycan array binding signal (z-score)” value [25] of the same binder?
Answer: -0.29

Question: And the “glycan array binding signal (z-score)” value (GlcNAc(b1-3)Gal(b1-4)Glc)?
Answer: -0.285

Question: What about the “glycan array binding signal (z-score)” value [26] of the same binder?
Answer: -0.275

Question: And the “glycan array binding signal (z-score)” value [27]?
Answer: -0.293

Question: What about the “glycan array binding signal (z-score)” value (GlcNAc(b1-3)GalNAc) of the same binder?
Answer: -0.088

Question: And the “glycan array binding signal (z-score)” value (GlcNAc(b1-3)Man)?
Answer: -0.299

Question: And the “glycan array binding signal (z-score)” value [28]?
Answer: 0.262
